The whole screen tested about 48,000 compounds, of which about 120 (0.25%) were called active. Another 4% or so got no clear call; they are omitted. Calls follow the shape of the dose curve; as a rule, active = well fitted activation curve with a large enough effect; inconclusive = small, poorly fitted or top-dose-only effect, or another doubt; inactive = no such curve, though single readings can be large or run the other way. Some of the results follow.

The assay can be described thus: Primary qHTS for Identification of Small Molecule Activators of Huntingtin-Antisense Promoter Activity. Also: nearly all actives have a fitted effect of over 55% in size. The following applies: HEK293 HTT-AS promoter firefly luciferase reporter (activity 0% = vehicle and -100% = no light), 24 h; series mostly up to 57.5 µM; activity change, positive = activation: at the top concentration. The gist of the method:
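HEK293 Fluc reporter, 2,500 cells/well, 24 h pre-culture; cpds up to 57.5 uM final, 24 h 37 degrees C; Dual-Glo, 10 min RT; normalized vehicle = 0%, zero RLU = -100%.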
On to `CNc1nc(-c2ccc3c(N)n[nH]c3c2)cc(N2C[C@@H](C(=O)NC3CCCCC3)CC[C@@H]2C)n1`, for which the “activity change, positive = activation” value was inactive: -25.5%. Then `CCOC(=O)c1ccc2c(c1)N(CC(=O)Nc1ccc(C)cc1C)C(=O)c1ccccc1S2`, with inactive: 3.15%. As for `COc1ccc(NC(=O)c2nnn(Cc3nc(-c4cc(OC)c(OC)c(OC)c4)oc3C)c2C)cc1`, the “activity change, positive = activation” value was inactive: -5%. Then `CCN(CC)C(=O)Cn1cc(SCC(=O)Nc2ccccc2F)c2ccccc21`, with inactive: -14.8%; and `Cc1cc(C)c2c(=O)c3c(oc2c1)C(=O)N(Cc1ccc(F)cc1)C3c1cccc(O)c1` (stereo not given), with inactive: -32.2%. Then `Cc1ccc(CNC(=O)CN(c2ccc(C(C)C)cc2)S(=O)(=O)c2c(C)n[nH]c2C)cc1`, with inactive: -28.8%.

For the compound `CC(C)(C)CC(=O)Nc1nnc2n1CCS2`, the “activity change, positive = activation” value is inactive: -0.0544%. As for `COc1ccc(Cn2ccnc2SCC(=O)Nc2ccc(C)cc2C)cc1`, the “activity change, positive = activation” value was inactive: -4.39%.

Take `O=C(COc1ccc(Cl)cc1)Nc1ccccc1C(=O)OCc1cc(=O)n2ccsc2n1`: the “activity change, positive = activation” value is inactive: 29.1%. With `CCCC(=O)NCC(c1ccc2c(c1)OCO2)N1CCOCC1` (stereo not given) the figure was inactive: -2.55%; with `COc1ccccc1CNC(=O)CN1C(=O)CSc2c1c(C)nn2-c1ccccc1`, inactive: -0.988%. Then `CC1CCN(C(=O)CN2CCSc3ccccc32)CC1`, with inactive: -9.97%; and `O=C(Nc1ccc(SC(F)F)cc1)c1cc(-c2cccs2)on1`, with inactive: 23.3%; and `COC(=O)c1sc2cccc(F)c2c1S(=O)(=O)N1CCN(c2ccccc2OC)CC1`, with inactive: -32.9%. Then `Cc1ccc(-c2cc(NC(=O)C(C)Oc3ccc(C)c(C)c3)on2)cc1` (stereo not given), with inactive: -10.5%; and `CC(=O)c1cccc(NC(=O)CCCN2C(=O)COc3ccc(C)cc32)c1`, with inactive: -20.9%. Turning to `CCOc1ccc(C(=O)Nc2nnc(S(=O)(=O)N(CC)c3ccccc3C)s2)cc1`, the “activity change, positive = activation” value was inactive: -33.1%. With `O=C(NCCc1ccccc1)c1ccc2c(c1)CCN2S(=O)(=O)c1ccc(Br)cc1` the figure was inactive: -2.75%; with `COc1ccc(N2CC(c3nc(-c4cc(OC)c(OC)c(OC)c4)no3)CC2=O)cc1Cl` (stereo not given), inactive: -18.7%. As to `O=C(CCS(=O)(=O)c1cccs1)Nc1ccc(C(=O)Nc2cccc(Cl)c2)cc1`, the “activity change, positive = activation” value is inactive: 5.67%.

Take `COc1cc(OC)cc(C(=O)N2CCC(c3ccncc3)CC2)c1`: the “activity change, positive = activation” value is inactive: -14.6%. Then `CCNc1nc2c(c(=O)[nH]c(=O)n2C)n1CC(O)COc1ccc(Cl)cc1Cl` (stereo not given), with inactive: -38.6%. On to `CCC(=O)N1CCCc2cc(S(=O)(=O)N3CCC(C(=O)Nc4ccc(F)c(F)c4)CC3)ccc21`, for which the “activity change, positive = activation” value is inactive: -23.6%.

As for `COc1ccc(CNc2ccc3cc(S(=O)(=O)N4CCCCC4)ccc3n2)cc1`, the “activity change, positive = activation” value was inactive: -36.8%. Then `Cc1ccc(C)c(NC(=O)CN2C(=O)CSc3nc(C)cc(C)c32)c1`, with inactive: -11%. With `O=C(Cc1ccccc1)Nc1c(C(=O)N2CCN(c3ccc(F)cc3)CC2)oc2ccccc12` the figure was inactive: -19.7%; with `CCOC(=O)c1cnc2cc(C(F)(F)F)ccc2c1N1CCN(c2ccc(F)cc2)CC1`, inactive: -13.3%.

On to `COc1ccccc1CNC(=O)C1CCCN(c2nn3cc(-c4ccc(F)cc4)nc3s2)C1` (stereo not given), for which the “activity change, positive = activation” value is inactive: -61%.

As to `Cc1ccc(Cn2ccn(CC(=O)Nc3ccccc3C(F)(F)F)c(=O)c2=O)cc1`, the “activity change, positive = activation” value was inactive: -7.96%.

`CCOc1ccc(CCNC(=O)CS(=O)Cc2nc(-c3ccc(C)cc3)oc2C)cc1OCC` (stereo not given): the “activity change, positive = activation” value is inactive: -20.3%.

For `Cc1c(C(N)=O)cc([N+](=O)[O-])cc1[N+](=O)[O-]`, the “activity change, positive = activation” value is inactive: -13.8%.

Consider `COC(=O)c1ccccc1NC(=O)CSc1nc(-c2ccccc2)cc(C(F)(F)F)n1`, for which the “activity change, positive = activation” value was inactive: -19.5%.

For `CC(=O)c1ccc(NC(=O)c2ccc3c(c2)N(Cc2cccc(Cl)c2)C(=O)c2ccccc2S3(=O)=O)cc1`, the “activity change, positive = activation” value is inactive: -12.5%. Then `CCOc1ccccc1NC(=O)Cn1c(=O)n(CCCC(=O)NCCOC)c(=O)c2cc(OC)c(OC)cc21`, with inactive: -5.48%. Then `CCOC(=O)c1c(C)[nH]c(C)c1S(=O)(=O)N1CCC(C(=O)Nc2ccc(F)cc2F)CC1`, with inactive: -24%; and `Cc1cc(Cl)ccc1NC(=O)CN1C(=O)CSc2ccc(S(=O)(=O)N(C)C)cc21`, with inactive: -9.91%; and `CCOCCc1nn2c(=O)cc(COC(=O)COc3ccccc3Cl)nc2s1`, with inactive: -7.99%. With `COc1ccc(CNC(=O)Cn2ccc3cc(S(=O)(=O)N4CCCCC4)ccc32)c(OC)c1` the figure was inactive: -28.3%. As for `Cc1ccc(NC(=O)CN2CCCN(Cc3ccccc3Cl)S2(=O)=O)c(C)c1`, the “activity change, positive = activation” value was inactive: -19.3%. With `COc1ccccc1CNC(=O)CCc1c(C)nc2cc(-c3ccccc3OC)nn2c1C` the figure was inactive: -37.5%; with `C/C=C/C(=O)N(CC)c1ccccc1C`, inactive: -0.683%. In the case of `CC(=O)c1ccc(NS(=O)(=O)c2cc3[nH]c(=O)c(=O)[nH]c3cc2C)cc1`, the “activity change, positive = activation” value was inactive: -5.18%.

On to `Cc1ccc(C)c(N2CCN(C(=O)Cn3ncc4c(=O)oc5ccc(C)cc5c43)CC2)c1`, for which the “activity change, positive = activation” value was inactive: -3.73%. Then `COc1ccc(S(=O)(=O)NCCc2nnc3ccc(SCC(=O)Nc4ccc(C(F)(F)F)cc4)nn23)cc1`, with inactive: -28.4%; and `COc1cccc(/C=C/c2nc(C#N)c(N3CCCCC3)o2)c1`, with inactive: -5.41%. Then `O=C(c1cnc2cc(-c3ccccc3)nn2c1)c1cc([N+](=O)[O-])ccc1O`, with inactive: -27.6%; and `CCCn1c(=N)c(C(=O)NCc2cccnc2)cc2c(=O)n3cc(C)ccc3nc21`, with inactive: -5.07%; and `O=C(C1CCCN(S(=O)(=O)c2cccc3nonc23)C1)N1CCN(c2cccc(Cl)c2)CC1` (stereo not given), with inactive: -9.01%. For the compound `CCc1ccc(CSc2nc(-c3ccccc3OC)nc3c2Cc2c(CO)cnc(C)c2O3)cc1`, the “activity change, positive = activation” value was inactive: -14.2%. With `CCOc1ccccc1CNc1ncnc2c1nc1n2CCCC1` the figure was inactive: -29.8%. With `CSc1ccc(CCNC(=O)CCc2c(C)nc3c(-c4ccccc4)c(C)nn3c2C)cc1` the figure was inactive: -38.5%. Then `Cc1ccccc1Cn1nc(C)c(NC(=O)c2cc(-c3ccc(F)cc3)on2)c1C`, with inactive: -10.1%; and `Cc1cccc(-n2c3c(cc(-c4nc(-c5ccc(Cl)cc5)cs4)c2=O)C(=O)CC(C)(C)C3)c1`, with inactive: -13.4%; and `COC(=O)c1ccc2c(=O)n(CCCCCC(=O)NCc3ccccc3)c(=O)[nH]c2c1`, with inactive: -1.11%.

Regarding `C=C[C@H]1CN2CC[C@H]1C[C@@H]2[C@@H](O)c1ccnc2ccc(OC)cc12`, the “activity change, positive = activation” value was inactive: -4.4%. Then `O=C(CN1CCSc2ccccc21)N1CCN(c2ccccc2)CC1`, with inactive: -22.4%. Then `CCn1cc(C2N3CC4(CC)CN2CC(CC)(C3)C4=O)c2ccccc21` (stereo not given), with inactive: -0.895%; and `CCOC(=O)c1c(NC(=O)/C=C/c2ccc(OC)c(OC)c2)sc(C(C)=O)c1C`, with inactive: -13.4%. With `Cc1ccc(OCc2nc(-c3ccc(C(=O)N4CCN(c5cc(Cl)ccc5C)CC4)cc3)oc2C)cc1`, the “activity change, positive = activation” value is inactive: -23.6%. Then `O=S(=O)(c1ccccc1)c1nc(-c2cccs2)oc1SCc1ccccc1Cl`, with inactive: -2.75%.

The values above are taken from PubChem BioAssay AID1508624 (National Center for Advancing Translational Sciences (NCATS), 2021).
